Measurements published in the supplement of paper PMC4166925.
± gives the standard deviation of the averaged measurements. In all, about 33,000 sequences were measured (“E-score (dimensionless, -0.5 to 0.5)”: median about -0.049, highest 2% from about 0.37 on). This is one part of the list.

System: T1, PmTbr T-box DNA-binding domain (GST fusion)
T1 sequence: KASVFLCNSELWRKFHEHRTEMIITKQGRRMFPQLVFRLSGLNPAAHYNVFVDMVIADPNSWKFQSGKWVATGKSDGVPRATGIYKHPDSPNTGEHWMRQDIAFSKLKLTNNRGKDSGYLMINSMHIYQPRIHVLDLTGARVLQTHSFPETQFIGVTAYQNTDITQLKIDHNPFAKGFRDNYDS
Assay: PBM E-score of 8-mer (E-score (dimensionless, -0.5 to 0.5)); Tbr is Tbrain of the sea star Patiria miniata (Pm) or the sea urchin Strongylocentrotus purpuratus (Sp); higher = stronger binding preference; most listed sequences are background and not binding sites
Details: the construct has about 5 more residues each side
Method in brief: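 Each ungapped 8-mer received an enrichment E-score from the Universal PBM Analysis Suite, averaged over duplicate arrays. The proteins were Tbr T-box DNA-binding domains, covering the whole T-box plus about five flanking residues, fused to GST and expressed in BL21 E. coli at 20 °C before glutathione affinity purification. Universal Agilent oligonucleotide arrays were made double-stranded by primer extension and incubated with 200 nM protein in PBS (pH 7.5). The arrays were then scanned and quantified, and every 8-mer was scored from probe intensities.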

Sequence	PBM E-score of 8-mer
TCGGCTCA	-0.168 ± 0.031
GAGTACGA	-0.0716 ± 0.025
GCCATGGA	-0.141 ± 0.033
GCAGTATA	-0.0728 ± 0.075
AGACTGAT	-0.155 ± 0.0098
GGTCGGTA	-0.162 ± 0.037
CGGGGGCC	-0.0779 ± 0.03
CACTCTGC	-0.00945 ± 0.013
GTCCGTGA	-0.0686 ± 0.073
CGTCAAGC	0.114 ± 0.017
CAAGAAGG	-0.101 ± 0.039
AATGTTCA	-0.0812 ± 0.057
GTGGACCA	-0.271 ± 0.013
GATTGCCC	-0.0679 ± 0.024
CGTTTGTC	0.0778 ± 0.0091
ACTGCTTC	-0.18 ± 0.057
CTAACCAC	0.0529 ± 0.069
AGGACTAG	-0.321 ± 0.03
GATGCACC	-0.0938 ± 0.034
TTCAAGAA	-0.172 ± 0.002
CCGAATGC	-0.26 ± 0.0074
TCCTAGCA	0.0854 ± 0.013
GGTTGTAA	-0.185 ± 0.08
CGGGCCGA	-0.232 ± 0.096
GCGGGGAA	0.121 ± 0.002

Sequence	PBM E-score of 8-mer
GAAGGCCC	-0.177 ± 0.028
CCTTCCCG	-0.194 ± 0.074
CTGCCAAG	-0.0294 ± 0.034
AGAAAAAG	-0.161 ± 0.039
AGTCAGGA	-0.1727 ± 0.00023
AGGGAAGC	-0.32 ± 0.0069
TCGAGAAA	0.0491 ± 0.0063
ACATAGCA	0.254 ± 0.043
TAGGAATA	-0.362 ± 0.056
ACTGCTCG	0.0881 ± 0.035
CTATTTAA	0.0722 ± 0.056
AGTCTGAG	0.0166 ± 0.0037
ATCGCGGG	0.0753 ± 0.022
AGTTAAGG	-0.0465 ± 0.0096
CTACGTGC	0.0483 ± 0.049
ATTTTATG	-0.0546 ± 0.13
CCAGTACG	-0.32 ± 0.032
GCAGAAGA	-0.194 ± 0.038
AGACATAA	-0.112 ± 0.02
GTCTTTAA	-0.233 ± 0.028
CCGTATAG	-0.11 ± 0.014
ACACTCCC	0.265 ± 0.042
CATTTTCA	0.0383 ± 0.027
CAGGAATA	-0.0771 ± 0.004
GGTCCGTA	-0.31 ± 0.0095

Sequence	PBM E-score of 8-mer
CCAAGTTA	-0.166 ± 0.023
TTCCGAAA	-0.148 ± 0.0043
ATTTAATC	-0.234 ± 0.12
TAAGTACA	-0.106 ± 0.042
GGAATAAA	-0.152 ± 0.0091
CGGACCTA	-0.113 ± 0.055
GGGTCCAA	-0.173 ± 0.039
ATCATAAA	-0.0659 ± 0.032
GGATGGAA	-0.237 ± 0.027
AATGGCCT	-0.0758 ± 0.017
ATCAGCAG	0.0234 ± 0.014
ACAGCGTC	0.0172 ± 0.035
CACTGGAG	-0.133 ± 0.0021
AGGAGCCT	-0.292 ± 0.047
ACATCCGG	-0.0734 ± 0.061
GCTTGGGA	-0.208 ± 0.064
CGGACGCC	0.06 ± 0.061
GGTTCGCA	0.334 ± 0.02
CTGGCTTA	-0.275 ± 0.025
AATTTTAA	-0.0211 ± 0.19
AATGAGTA	-0.115 ± 0.038
GCGGTGCA	0.0732 ± 0.012
ATAGCCAA	-0.2 ± 0.05
ATTAAATG	-0.0498 ± 0.087
CTGTACCC	-0.141 ± 0.005

Sequence	PBM E-score of 8-mer
GGTAAAGA	-0.155 ± 0.043
CGTCTGAA	-0.182 ± 0.073
AAATGCCC	-0.194 ± 0.043
ACCTTCCG	0.244 ± 0.024
ACGATTTG	0.146 ± 0.052
CTATTAGC	0.0714 ± 0.036
AACTGGGT	0.0102 ± 0.014
ATCATTTC	-0.124 ± 0.049
ATACAACG	-0.0324 ± 0.0032
AGTACAAG	-0.179 ± 0.081
AACACCAA	0.393 ± 0.011
ACAGCACG	0.0921 ± 0.053
CGCGTCGA	0.225 ± 0.0088
AAAGGCAC	-0.0325 ± 0.013
ACTACTCA	0.0417 ± 0.047
ACGTACGT	0.296 ± 0.016
CTAAAACC	-0.186 ± 0.088
CGGCCTAG	-0.0171 ± 0.036
ACCGAGCG	-0.171 ± 0.018
ACATACGA	-0.0429 ± 0.024
AGTACTGG	-0.272 ± 0.0055
ACATCGTA	-0.0767 ± 0.038
ATTAAAGA	-0.221 ± 0.057
ATGTTTGC	-0.0719 ± 0.089
TCGTTCCA	-0.0874 ± 0.035

Sequence	PBM E-score of 8-mer
GTGATGGA	0.219 ± 0.031
TCCGTGCA	-0.0476 ± 0.039
AGGCCTGG	-0.293 ± 0.041
ACACAGCG	0.157 ± 0.028
TAGTCCAA	-0.327 ± 0.018
CGTTCCAC	0.036 ± 0.032
CAACCTTA	-0.245 ± 0.026
ATAGACTC	-0.273 ± 0.051
CTTAATTA	-0.165 ± 0.0089
CAGACTAC	-0.244 ± 0.019
CAAGCCAA	-0.169 ± 0.02
GAGTAGCA	0.135 ± 0.0046
AATGATCA	-0.177 ± 0.009
GCATTCGC	0.204 ± 0.055
TGAGTCAA	-0.155 ± 0.011
AGCCAGCA	-0.114 ± 0.0039
CTACTTTA	0.0726 ± 0.045
CTCGTGTC	0.125 ± 0.043
AACGGTAC	-0.0723 ± 0.022
GCCTCAGC	0.0495 ± 0.022
AATTATGC	-0.126 ± 0.071
CCGCCCGG	-0.266 ± 0.02
GAGCAGTA	-0.00165 ± 0.021
CATCTATA	-0.189 ± 0.009
CTCTGAAA	-0.198 ± 0.063

Sequence	PBM E-score of 8-mer
ATTAAGCC	-0.166 ± 0.011
AGCGACCA	-0.0413 ± 0.019
ACTAGGAA	-0.1977 ± 0.001
CGTTAGTC	-0.04 ± 0.0098
ATCTCCCG	-0.0701 ± 0.054
AATTAGGT	0.152 ± 0.083
CGGACGTA	-0.224 ± 0.018
CCGCCGAC	0.09 ± 0.0017
ATCGAATC	-0.209 ± 0.051
GCAAATGC	-0.0465 ± 0.014
ATGGCTAA	-0.0831 ± 0.062
ATAGCTAA	-0.273 ± 0.053
AAACGCGG	-0.222 ± 0.044
GTTCACGA	0.224 ± 0.037
AAGATTCT	-0.252 ± 0.084
GGATGTAC	-0.201 ± 0.079
CAGTTCTA	-0.0552 ± 0.026
CTCTACAG	-0.113 ± 0.0066
CATCCTCA	-0.0261 ± 0.11
AATTTAAG	-0.158 ± 0.055
AATTCCAG	-0.107 ± 0.0077
CAGTGATA	0.0686 ± 0.025
ACATGTCC	-0.137 ± 0.069
AAAAGCTT	-0.0359 ± 0.065
CAGTACAA	-0.0958 ± 0.11

Sequence	PBM E-score of 8-mer
GTACGGGA	-0.122 ± 0.14
AATCTCAC	0.382 ± 0.0088
ATTTCAAG	-0.237 ± 0.005
CCATTGGG	-0.0455 ± 0.018
GGCAGTAC	-0.0369 ± 0.011
GTATACAA	-0.188 ± 0.028
GCGCATCC	-0.146 ± 0.024
AAGAGAGA	-0.148 ± 0.021
GCCGGTAC	-0.0742 ± 0.039
AATGGGTG	0.152 ± 0.01
ATCTATGG	-0.0973 ± 0.0057
ATACTTGG	-0.174 ± 0.046
GGGGAGTA	-0.302 ± 0.006
GTGTCAAA	0.448 ± 0.0094
AAAGGCCG	-0.109 ± 0.03
ACGAGACA	-0.0382 ± 0.093
AAAACCAA	-0.179 ± 0.096
ATTCACTC	0.0712 ± 0.054
ACTGTTCT	-0.0189 ± 0.038
CATTAACC	-0.234 ± 0.022
ATCAGTCG	-0.135 ± 0.035
ATGAATTA	0.0608 ± 0.11
